In PubChem BioAssay AID463173 (ICCB-Longwood Screening Facility, Harvard Medical School, 2010):
Among all 52,000 compounds or so, about 4,300 (8.3%) were called active. Rule as the data show it: active = survival mostly below about 52% (no sharp cut-off); inactive = mostly above about 56%. The list shows a part of the results.

Test system: DeltatarO mutant
Assay: growth inhibition of S. aureus wild type versus tarO mutant, primary screen, teichoic acid synthesis inhibitors, RN4220, OD600 (AID 463173)
Conditions: OD600, 18 h, hits give low values, screened at 18.75 µg/mL (by protocol)

Compound | survival
CC(=O)Nc1cccc(NC(=O)c2cc3c(=O)n4cccc(C)c4nc3n2C)c1 | inactive: 105%
CCOc1ccccc1Nc1ncnc2c1cnn2-c1ccc(C)cc1 | inactive: 87%
CCCn1cc(S(=O)(=O)c2ccc(C)cc2)c(=O)c2cc(F)c(N3CCCC3)cc21 | inactive: 80%
COc1cc(NC(=O)c2ccc(C)c(Cl)c2)ccc1NC(=O)c1cc2ccccc2o1 | inactive: 63%
COc1ccc(CC(=O)Nc2nc3c(s2)CC(C)CC3)cc1 (configuration not stated) | inactive: 75%
Cc1ccc(NC(=O)C2CCCN(S(=O)(=O)c3ccc4[nH]c(=O)ccc4c3)C2)cc1Cl (configuration not stated) | inactive: 75%
COc1ccc2c(c1)c1c(c(=O)n(CCc3ccccc3)c(=O)n1Cc1cccc(Cl)c1)n2C | inactive: 76%
COc1cc2c(cc1OC)C(c1cc3cc4c(cc3[nH]c1=O)OCO4)N(C(=O)c1ccco1)CC2 (configuration not stated) | inactive: 94%
COc1ccc(-n2ncc3c(NCCCOC(C)C)ncnc32)cc1 | active: 0%
O=C(CCc1nc(CN2CCN(S(=O)(=O)c3ccc(Br)cc3)CC2)no1)N1CCCCC1 | inactive: 70%
CCCCNC(=O)C1CCCN(S(=O)(=O)CCC)C1 (configuration not stated) | inactive: 82%
CCc1nn(CC(=O)NC2CC2)c(=O)c2cc3c(OC)cccc3n12 | inactive: 83%
COc1cc(NC(=O)Cn2c(=O)n(CC3CCC(C(=O)NCCc4ccccc4)CC3)c(=O)c3ccccc32)cc(OC)c1 (configuration not stated) | inactive: 107%
COc1cc2cc(CNc3ccccc3)c(=O)n(CC(=O)Nc3cccc(Cl)c3C)c2cc1OC | inactive: 49%
COc1cccc(Cn2cc(C(=O)c3ccccc3)c(=O)c3cc4c(cc32)OCO4)c1 | inactive: 94%
CCCCOc1ccc(CNC(=O)c2cccc(NC(=O)N3CCSc4ncccc43)c2)cc1 | inactive: 89%
Cc1c(C(=O)NCc2ccc(Cl)cc2)oc2ccc3c(c12)C(=O)CC(C)(C)O3 | active: 53%
Cc1ccc(CNC(=O)CSc2ncc3c(n2)-c2cc(Cl)ccc2N(C)S3(=O)=O)cc1 | inactive: 69%
COc1ccccc1CNC(=O)C1CCN(c2nc3ccc(Cl)cc3[nH]2)CC1 | active: 25%

Compound | survival
COc1cc2c(=O)n(CCC(=O)NCC3CCCO3)c(=O)n(CC(=O)Nc3ccccc3C)c2cc1OC (configuration not stated) | inactive: 136%
CCc1nn(CC(=O)NCCc2ccc(OC)cc2OC)c(=O)c2cc3occc3n12 | inactive: 68%
CCCCc1ccc(-n2nc3cc(C)c(NC(=O)c4ccc(C#N)cc4F)cc3n2)cc1 | inactive: 88%
Cc1ccc(NCc2cccn2-c2nnc(N3CCC(C(=O)NCCc4ccc(Cl)cc4)CC3)s2)cc1 | inactive: 59%
CCc1ccc(C(=O)c2cn(CC(=O)Nc3ccc4c(c3)OCCO4)c3ccc(F)cc3c2=O)cc1 | inactive: 78%
COc1ccc(-n2c(C)nc3c(cnn3-c3ccc(F)cc3)c2=O)cc1 | inactive: 73%
CCCCN(CC)CCCNC(=O)c1c(C)oc2ncnc(N3CCOCC3)c12 | inactive: 55%
COc1c(O)cccc1-c1nnn(CCC(=O)OCC(=O)c2ccccc2)n1 | inactive: 66%
CCc1nn2c(=O)cc(COC(=O)c3cccc(NC(=O)CCc4ccccc4)c3)nc2s1 | inactive: 84%
CCOC(=O)c1cnc2cc(-c3ccc(OCC)cc3)nn2c1-c1ccccc1 | inactive: 68%
CC(CN(C)C)OC(=O)c1ccc2c(c1)OCO2 (configuration not stated) | inactive: 111%
COCCc1nn2c(=O)cc(COC(=O)C(c3ccccc3)c3ccccc3)nc2s1 | inactive: 130%
Cc1cc(NC(=O)n2ncc3c(C)cccc32)ccc1Br | inactive: 85%
CCc1ccc(NC(=O)CC2C(=O)N(c3cccc(C)c3)C(=O)N2Cc2ccc(F)cc2)cc1 (configuration not stated) | inactive: 89%
C=CC(=O)NC(C)(C)Cc1ccccc1 | inactive: 104%
CCC1(CC)Cc2ccccc2-c2nc(NCCCO)[nH]c(=O)c21 | inactive: 82%
CCCc1cc(=O)[nH]c(Nc2cc(C)ccc2OC)n1 | inactive: 73%
CC(Sc1nnc2ccc3ccccc3n12)C(=O)Nc1ccc(Cl)cc1 (configuration not stated) | inactive: 76%
COc1cccc(CCNC(=O)c2c(O)nc3c(C)cccn3c2=O)c1 | inactive: 108%

Compound | survival
O=C(NCCCN1CCOCC1)c1cc2ccccc2oc1=O | inactive: 94%
Cc1nc2ccn(Cc3ccccc3)c(=O)c2cc1C(=O)N1CCN(c2ccc(F)cc2)CC1 | inactive: 95%
COc1ccccc1NC(=O)Cn1c(SCC(=O)Nc2ccc(F)cc2)nc2ccccc21 | inactive: 94%
CCc1ccc(NC(=O)CC2C(=O)N(c3cccc(OC)c3)C(=O)N2Cc2ccc(F)cc2)cc1 (configuration not stated) | inactive: 94%
Cc1cc2ccc(C)c(C)c2nc1SCC#N | inactive: 94%
Cc1ccc(-n2c3c(cc(C(=O)Nc4ccccc4C(N)=O)c2=O)C(=O)CC(C)(C)C3)cc1 | inactive: 49%
OCC(O)CNC(=S)NC1CCCCC1 (configuration not stated) | inactive: 93%
COc1ccc(C2=Nc3ccccc3NC(c3cccs3)=N2)cc1 | inactive: 55%
CN(C)CCNC(=O)CN1C(=O)COc2ccc(S(=O)(=O)N3CCCC3)cc21 | inactive: 85%
Cc1cc(C)c(NC(=O)CSc2ccc(-c3ccccn3)nn2)c(C)c1 | inactive: 106%
CCOc1ccccc1NC(=O)c1c(NC(=O)COc2ccccc2)sc2c1CCCC2 | inactive: 66%
O=C1CC(c2ccccc2)Sc2ccccc2N1Cc1ccc(F)cc1 (configuration not stated) | active: -2%
Cc1cccc(N2CCN(C(c3cc4cc5c(cc4[nH]c3=O)OCO5)c3nnnn3CC3CCCO3)CC2)c1C (configuration not stated) | inactive: 79%
COc1ccc(NC(=O)CSc2nccn2Cc2ccc3c(c2)OCO3)cc1 | inactive: 58%
COc1ccc(C)cc1NC(=O)C(=O)NCC(c1cccnc1)N1CCc2ccccc21 (configuration not stated) | inactive: 56%
CC(C)CNS(=O)(=O)c1ccc(S(=O)(=O)N2CCCC(C(=O)NC3CCCCC3)C2)cc1 (configuration not stated) | inactive: 75%
Cc1ccc(CNC(=O)CSc2nc3ccsc3c(=O)n2Cc2ccccc2F)cc1 | inactive: 128%
Cc1ccc(-n2cc(-c3ccccc3)c3c(N4CCCCC4)ncnc32)cc1 | inactive: 78%
COc1ccccc1CNC(=O)c1c[nH]c2ccc(S(=O)(=O)Nc3cc(C)cc(C)c3)cc2c1=O | inactive: 89%
